# The whole screen tested about 420,000 compounds, of which about 50,000 (12%) were called active. The inconclusive results got no clear call from the source; some entries with a clear call stand among them for comparison. The call rests on the fitted dose curve; in most records, active means well fitted inhibition curve with a large enough effect; inconclusive means small, poorly fitted or top-dose-only effect; inactive means flat fitted curve, though single readings scatter. No potency is given beside an inconclusive call; the fits are too rough.
# Experiment: qHTS for Inhibitors of human tyrosyl-DNA phosphodiesterase 1 (TDP1): qHTS in cells in presence of CPT; further: nearly all actives have a fitted effect of over 55% in size
# Conditions: chicken DT40 Tdp1-/-;hTDP1 cells + 20 nM CPT, ATP luminescence, 48 h; activity change, negative = growth inhibition: at 46.2 µM (top of the series) unless noted
# Outline: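 Cell growth measured by CellTiter-Glo luminescence after a minimum 48 h, 37 C compound exposure with 20 nM CPT in Tdp1-knockout DT40 cells stably expressing hTDP1, seeded 400/well; qHTS titration format.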
# On the % scale 0 is the no-effect control and ±100 the full control effect; potency means the concentration at half of the fitted maximal effect; tags describe the fitted curve by direction and shape.
SMILES,Potency,"activity change, negative = growth inhibition"
O=C(CN1CCN(S(=O)(=O)c2ccccc2Cl)CC1)NCC1(N2CCOCC2)CCCCC1,"inconclusive [inhibitor, single point]",–
CCNc1cc2n(c(=O)n1)CCc1cc(OC)c(OC)cc1-2,inactive,–
CC(=O)N1N=C(N)SC1c1ccc(Cl)c(Cl)c1 (centres undefined),inactive,–
COc1ccccc1CNC(=O)C1CCN(C(=O)N(C)C)CC1,inactive,–
O=c1oc2cc(O)ccc2cc1-c1ccc2c(c1)OCCO2,–,inactive: 12.9% [at 9.04 µM]
N/C(=N\OC(=O)c1ccccc1)C(Cc1ccccc1)C(=O)NOC(=O)c1ccccc1 (centres undefined),active: 2.91 µM,–
COC(=O)Cc1c(C)nc2nc(NCc3ccc(Cl)cc3)[nH]n2c1=O,inactive,–
CC(=O)Nc1ccc(S(=O)(=O)N2CCN=C2SCc2cccnc2)cc1,"inconclusive [inhibitor, single point]",–
CC(C)(C)c1ccc(-c2cn(-c3ccc(Br)cc3)c3[n+]2CCCS3)cc1,active: 0.164 µM,–
COc1cccc2c1OCC(C(=O)Nc1nccs1)=C2,inactive,–
CC1COc2ccccc2N1S(=O)(=O)c1cc(Cl)ccc1Cl (centres undefined),inactive,–
COc1cc(=O)n2c(c1C(=O)N(C)Cc1nonc1C)CCN(CC1CC=CCC1)CC2 (centres undefined),inactive,–
COCCNc1nc2ccccc2nc1NS(=O)(=O)c1ccc(C)cc1C,inactive,–
Cc1cccc(N(C(=O)c2csnn2)C(C(=O)NC2CCCCC2)c2ccccn2)c1C (centres undefined),inactive,–
FC(F)(F)c1cccc(NC(=S)NCC(c2cccnc2)N2CCOCC2)c1 (centres undefined),"inconclusive [inhibitor, single point]",–
CCn1c(C)cc(=S)c2ccccc21,"inconclusive [inhibitor, single point]",–
COc1ccc(C2(c3ccc(OC)cc3)NC(=O)N(CC(=O)N(C)c3ccccc3)C2=O)cc1,"inconclusive [inhibitor, single point]",–
Cc1nc(SCC(=O)NC2CCCC2)[nH]c(=O)c1Cc1ccccc1,inactive,–
CC(=O)Oc1ccc(Cn2cnc3cc4ccccc4cc32)cc1,"inconclusive [inhibitor, single point]",–
CC[C@]1(C(=O)OC)[C@H]2C(=O)N(Cc3ccccc3)C(=O)[C@H]2[C@H]2CN=C(SCc3ccccc3)N21,"inconclusive [inhibitor, single point]",–
COc1ccc(-c2cc3c(=O)n(CC(=O)Nc4ccc(Br)c(C)c4)ccn3n2)cc1OC,inactive,–
O=C(c1ccc(CS(=O)c2ccccc2Cl)o1)N1CCN(C2CCCCC2)CC1 (centres undefined),"inconclusive [inhibitor, single point]",–
O=C(CSc1nnc(-c2ccc(F)cc2)o1)Nc1ccc(S(=O)(=O)N2CCCC2)cc1,"inconclusive [inhibitor, single point]",–
COc1ccc(Oc2ncc3ncc(=O)n(CCC#N)c3n2)cc1,inactive,–
CC1C(=O)N2CCCc3cc(NC(=O)C(=O)NCCc4c[nH]c5ccccc45)cc1c32 (centres undefined),"inconclusive [inhibitor, single point]",–

SMILES,Potency,"activity change, negative = growth inhibition"
Cc1ccc2nc(NC(=O)COC(=O)c3ccccn3)sc2c1,inactive,–
COc1ccc(S(=O)(=O)N2CCN(c3ccc(C)cc3C)CC2)cc1OC,active: 20.6 µM,–
Cc1ccc2nc(C)c(C(=O)N/N=C/c3ccc(C(=O)O)cc3)cc2c1,inactive,–
CCc1ccc(C2CC(=O)N(c3cccc(F)c3)C3=C2C(=O)OC3)cc1 (centres undefined),inactive,–
Cc1occc1-c1nnc(SCC(=O)NC2CCCCC2C)o1 (centres undefined),inactive,–
O=C(Oc1cccnc1)c1ccc(Cl)c(Cl)c1,"inconclusive [inhibitor, partial curve, poor fit]",–
O=C(C[C@H]1C/C=C\CCCC(=O)OC[C@H]2CCCN2C1=O)NCCO,inactive,–
Nc1sc(-c2ccccc2)cc1C(=O)NCCc1c[nH]c2ccccc12,active: 16.4 µM,–
O=C(c1ccccc1-c1nc(-c2ccccc2)no1)N1CCCC1,"inconclusive [inhibitor, single point]",–
COc1ccc(S(=O)(=O)CC(=O)c2cc3cccc(C)c3oc2=O)cc1,inactive,–
COc1ccccc1CNc1ccnc(-c2ccc3c(c2)OCO3)n1,"inconclusive [inhibitor, single point]",–
O=C(CCn1c(=O)c2cccn2c2cccnc21)Nc1ccccc1Br,inactive,–
COc1ccc(NC(=O)CCc2nc(-c3ccccc3F)no2)cc1,"inconclusive [inhibitor, single point]",–
Cc1cc(S(=O)(=O)Nc2cc3c(cc2NCc2ccccc2)n(C)c(=O)n3C)ccc1F,active: 7.31 µM,–
COCCC1CCCCN1C(=O)c1cc(COc2ccc(C)nc2)on1 (centres undefined),active: 20.6 µM,–
COC(=O)c1ccc(C(=O)OC)c(NC(=O)CN(C)Cc2ccccc2)c1,inactive,–
COC(=O)c1cccc(Cn2nnc3sc4c(c3c2=O)CCC(C(C)(C)C)C4)c1 (centres undefined),"inconclusive [inhibitor, single point]",–
O=C(O)C1(O)C[C@@H](O)C(O)[C@H](O)C1 (some centres undefined),inactive,–
COc1cc(/C=C2\SC(=O)N(Cc3ccc(Cl)cc3)C2=O)cc([N+](=O)[O-])c1O,"inconclusive [inhibitor, single point]",–
CCOC(=O)c1c(C)[nH]c(C)c1C(=O)COc1ncnc2cc([N+](=O)[O-])ccc12,"inconclusive [inhibitor, partial curve, poor fit]",–
CC(=O)Nc1ccc(NC(=O)C(C)OC(=O)CCCN2C(=O)c3cccc4cccc(c34)C2=O)cc1 (centres undefined),"inconclusive [inhibitor, single point]",–
CCOc1ccccc1NC(=O)CN1CCC(C(=O)c2ccc(OC)cc2)CC1,"inconclusive [inhibitor, single point]",–
COc1ccc(-c2cc(NCc3ccccn3)n3ncnc3n2)cc1,"inconclusive [inhibitor, single point]",–
Cc1cc(O)c(C(C)C)cc1NC(=O)c1cccc(Cl)c1,inactive,–
Cc1ccc(C)c(Nc2nc(-c3ccccc3)c3cc(Br)ccc3n2)c1,"inconclusive [inhibitor, single point]",–

SMILES,Potency,"activity change, negative = growth inhibition"
COc1ccc(/C=N/NC(=O)c2ccncc2)cc1CN1CCOCC1,inactive,–
CCc1cc(=O)oc2cc(OCC(=O)N3CCC[C@H]3C(=O)O)ccc12,inactive,–
O=C(COC(=O)CCC(=O)c1ccc(F)cc1)NCCc1ccccc1,inactive,–
COCCNC(=O)C1(C)CCCN(Cc2ccc(-c3ccccc3)o2)C1 (centres undefined),"inconclusive [inhibitor, single point]",–
COc1ccccc1-c1nc(C#N)c(N2CCC(Cc3ccccc3)CC2)o1,"inconclusive [inhibitor, single point]",–
CCOc1nc(SCCOc2ccc(Cl)cc2Cl)nc(N(C)C)n1,"inconclusive [inhibitor, single point]",–
CCNC(=S)N/N=C/c1sc(N2CCCCC2)nc1-c1cccs1,"inconclusive [inhibitor, single point]",–
CCN(CCNC(=O)c1ccc2nc(-c3ccccc3NC(C)=O)c(=O)[nH]c2c1)c1ccccc1,"inconclusive [inhibitor, single point]",–
Cc1cc(C)nc(N(C#N)S(=O)(=O)c2ccccc2Cl)n1,inactive,–
Cc1cccc(N(C)C(CNS(=O)(=O)c2ccccc2)c2ccccc2)c1 (centres undefined),active: 16.4 µM,–
Cc1ccc(C)c(N2CCN(C(=O)CCC(=O)Nc3nnc(CC(C)C)s3)CC2)c1,–,inconclusive: -35% [inhibitor]
COc1ccc(Nc2cc(C(=O)N3CCc4ccccc4C3)c3ccccc3n2)c(OC)c1,"inconclusive [inhibitor, single point]",–
N#Cc1ccc(NC(=O)Cn2c3[n+](c4ccc(C(F)(F)F)cc42)CCCCC3)cc1,"inconclusive [inhibitor, single point]",–
COc1ccc(/C=N/NC(=O)CCn2cnc(-c3ccccc3)c2-c2ccccc2)cc1OC,active: 5.17 µM,–
COc1ccccc1NC(=O)c1c(Br)cnn1C,inactive,–
O=C(Nc1cccc(Cl)c1)c1cc(-c2ccc3c(c2)OCCO3)on1,"inconclusive [inhibitor, partial curve]",–
Cc1oc(-c2ccc(Cl)cc2)cc1C(=O)/C(C#N)=C/Nc1ccccc1,"inconclusive [inhibitor, single point]",–
Cc1nnc(N2CCCC(C(=O)Nc3cccc(C(F)(F)F)c3)C2)c2nn(-c3ccccc3)c(C)c12 (centres undefined),"inconclusive [inhibitor, single point]",–
CCCn1c(N2CCN(CC(=O)c3c(C)n(C)c4ccccc34)CC2)nc2c1c(=O)[nH]c(=O)n2C,"inconclusive [inhibitor, single point]",–
COc1ccc2c(c1)OC(=O)CC2c1cc(OC)c(OC)c(OC)c1 (centres undefined),"inconclusive [inhibitor, single point]",–
CCCN(CC(=O)Nc1ccc(F)c(F)c1F)C(=O)CCc1nc2ccccc2c(=O)[nH]1,"inconclusive [inhibitor, partial curve]",–
O=C(/C=C/c1ccc([N+](=O)[O-])cc1)NCCc1ccccc1,"inconclusive [inhibitor, single point]",–
COc1ccc(OC)c(C(C[N+](=O)[O-])c2c(C)cc3ccccn23)c1 (centres undefined),active: 2.06 µM,–
Cc1ccc(C(=O)Nc2nnc(C3=COCCO3)o2)cc1C,"inconclusive [inhibitor, single point]",–

# Reference: PubChem BioAssay AID686979 (National Center for Advancing Translational Sciences (NCATS), 2013)
